Source: the supplement of paper PMC4723716
± gives the uncertainty stated by the source. Whole data set: some 9,900 compounds, median “viability index relative to DMSO control” near 1, cut for the lowest 2% near 0.85. This is one part of the list.

System: Plasmodium falciparum NF54 stage V gametocytes
Assay: viability index relative to DMSO control (fraction); higher = less gametocyte killing
Conditions: 2.5 µM, library set: Broad Institute DOS, incubation time: 72 h
Summary of the method: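 Compound at 2.5 µM was incubated for 72 hr at 37°C under low oxygen with P. falciparum NF54 stage V gametocytes (0.75% gametocytemia, 1.25% hematocrit, 10 µl, serum-free screening medium) in 1,536-well plates. Staining used 3 µl of 2.5 µM MitoTracker Red CMXRos plus 0.13% saponin for one to two hours, and red particles of 20–70 µm2 were counted in one imaged field per well. Each viability index is that count relative to the plate mean of solvent-only wells.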

Q: How did the viability index turn out when CC(=O)N1[C@H](CO)[C@H]2c3ccccc3N(C(=O)c3ccc(F)cc3)C[C@H]21 was run?
A: The viability index was 0.969 ± 0.025.

Q: For CO[C@@H]1CN(C)C(=O)c2cc(NS(C)(=O)=O)ccc2OC[C@H](C)N(Cc2cncnc2)C[C@@H]1C, which viability index is on record?
A: The viability index was 1.06 ± 0.07.

Q: With O=C(C[C@@H]1CC[C@H](NC(=O)CN2CCOCC2)[C@@H](CO)O1)NC1CCC1 as the compound, how does the viability index read?
A: Its viability index is 1.05 ± 0.038.

Q: How did the viability index turn out when C/C=C/c1ccc([C@@H]2[C@@H](CO)N3C(=O)CN(C(=O)Nc4ccc(F)cc4)C[C@@H]23)cc1 was run?
A: Its viability index is 1.02 ± 0.065.

Q: With COc1ccccc1CN1[C@@H]2CNC[C@H]1[C@H]2c1ccc(-c2cccc(C#N)c2)cc1 as the compound, how does the viability index read?
A: The viability index was 1.06 ± 0.049.

Q: With CO[C@@H](CN(C)C(=O)c1cnccn1)[C@@H](C)CN([C@H](C)CO)S(=O)(=O)c1ccccc1 as the compound, how does the viability index read?
A: Its viability index is 0.911 ± 0.015.

Q: For CN1C(=O)c2cc(NS(C)(=O)=O)ccc2OC[C@H]2O[C@@H](CC(=O)N3CCOCC3)CC[C@H]21, which viability index is on record?
A: The viability index was 1.07 ± 0.066.

Q: Which viability index does the source give for C[C@@H]1CN([C@@H](C)CO)C(=O)c2ccccc2-c2ccccc2CO[C@H]1CN(C)C(=O)Nc1cccc(Cl)c1Cl here?
A: The viability index was 0.72 ± 0.16.

Q: Which viability index does the source give for CN(C)C(=O)c1cc2c(c(-c3cccc(C4=CCCCC4)c3)n1)[C@H](CCO)N(S(C)(=O)=O)C2 here?
A: Its viability index is 0.989 ± 0.071.

Q: With COC(=O)C[C@@H]1C[C@H]2c3cc(NC(=O)c4ccc5c(c4)OCO5)ccc3O[C@H]2[C@@H](CO)O1 as the compound, how does the viability index read?
A: Its viability index is 1.11 ± 0.022.

Q: With COc1ccccc1-c1ccccc1[C@@H]1[C@@H](C#N)N(C(=O)CN(C)C)[C@H]1CO as the compound, how does the viability index read?
A: The viability index was 1.16 ± 0.1.

Q: For COc1ccc2c3c([nH]c2c1)[C@@H](CO)N(C[C@]31CN(Cc2ccccc2)C1)C(=O)CN1CCOCC1, which viability index is on record?
A: The viability index was 0.937 ± 0.1.

Q: CN(C)Cc1cn(CC[C@H]2CC[C@@H](NC(=O)Cc3cccnc3)[C@@H](CO)O2)nn1 was tested. Which viability index did it give?
A: Its viability index is 1.02 ± 0.02.

Q: With O=C(CC1CC1)N1CC(=O)N2[C@H](C1)[C@@H](c1ccc(/C=C/c3ccccc3)cc1)[C@@H]2CO as the compound, how does the viability index read?
A: The viability index was 1.04 ± 0.096.

Q: Which viability index does the source give for CN1C(=O)c2cc(NC(=O)Cc3cccs3)ccc2OC[C@@H]2O[C@@H](CC(=O)NCCc3ccncc3)CC[C@@H]21 here?
A: Its viability index is 1.07 ± 0.14.

Q: With O=C(C1CCOCC1)N1CC(=O)N2[C@H](CO)[C@H](c3ccc(-c4cccnc4)cc3)[C@@H]2C1 as the compound, how does the viability index read?
A: The viability index was 1.09 ± 0.13.

Q: Which viability index does the source give for COCC(=O)Nc1ccc2c(c1)[C@@H]1C[C@H](CC(=O)N[C@H](C)c3ccccc3)O[C@H](CO)[C@@H]1O2 here?
A: Its viability index is 1.03 ± 0.05.

Q: With O=C(C[C@@H]1CC[C@H](NS(=O)(=O)c2ccccc2F)[C@@H](CO)O1)NCCCN1CCOCC1 as the compound, how does the viability index read?
A: Its viability index is 1.02 ± 0.12.

Q: With C[C@@H]1CN([C@H](C)CO)C(=O)CCCn2nncc2CO[C@H]1CN(C)C(=O)CCC(F)(F)F as the compound, how does the viability index read?
A: Its viability index is 0.954 ± 0.021.

Q: For CCC(=O)N1C[C@H](C)[C@H](OC)CN(C)C(=O)c2ccc(NC(=O)CC(F)(F)F)cc2OC[C@@H]1C, which viability index is on record?
A: Its viability index is 1.08 ± 0.032.

Q: With C/C=C/c1ccc2n(c1=O)C[C@@H]1[C@@H](CO)[C@H](C(=O)N[C@@H](C)c3ccccc3)N(C(=O)c3ccccn3)[C@H]21.C/C=C\c1ccc2n(c1=O)C[C@@H]1[C@@H](CO)[C@H](C(=O)N[C@@H](C)c3ccccc3)N(C(=O)c3ccccn3)[C@H]21 as the compound, how does the viability index read?
A: Its viability index is 1.09 ± 0.013.

Q: Which viability index does the source give for COc1cccc(S(=O)(=O)N2C[C@@H](O)COC[C@H]3O[C@@H](CC(=O)NCCCN4CCOCC4)CC[C@@H]32)c1 here?
A: Its viability index is 1.01 ± 0.1.

Q: Which viability index does the source give for C[C@@H]1CN([C@H](C)CO)C(=O)c2ccccc2-c2ccccc2CO[C@@H]1CN(C)Cc1ccc2c(c1)OCCN2C here?
A: Its viability index is 0.968 ± 0.014.

Q: For CC(C)NC(=O)N1Cc2cc(C(=O)NC3CCC3)nc(-c3cccc(-c4cncnc4)c3)c2[C@@H]1CCO, which viability index is on record?
A: Its viability index is 1.01 ± 0.018.

Q: With C[C@@H]1CN([C@H](C)CO)C(=O)c2cc(NC(=O)Nc3cccc4ccccc34)ccc2O[C@@H]1CN(C)S(=O)(=O)c1cccs1 as the compound, how does the viability index read?
A: The viability index was 0.977 ± 0.082.

Q: For O=C(CN1CCOCC1)N1[C@@H]2CNc3ccccc3[C@@H]2[C@@H]1CO, which viability index is on record?
A: The viability index was 1.05 ± 0.078.

Q: Which viability index does the source give for N#C[C@@H]1[C@@H](c2ccccc2-c2cccc(F)c2)[C@H](CO)N1C(=O)CN1CCOCC1 here?
A: The viability index was 1.08 ± 0.058.

Q: With COC(=O)[C@@H]1[C@@H](CO)[C@@H]2Cn3c(ccc(-c4ccccc4OC)c3=O)[C@@H]2N1C(=O)c1cnccn1 as the compound, how does the viability index read?
A: Its viability index is 1.09 ± 0.054.

Q: How did the viability index turn out when C[C@@H]1CN([C@H](C)CO)C(=O)c2cc(NC(=O)Cn3cnnn3)ccc2O[C@H]1CN(C)C(=O)Nc1ccc2c(c1)OCO2 was run?
A: The viability index was 1.01 ± 0.13.

Q: For C/C=C/c1ccc([C@H]2[C@H]3CN(C(=O)Nc4ccc(F)cc4)CC(=O)N3[C@H]2CO)cc1, which viability index is on record?
A: Its viability index is 0.995 ± 0.042.

Q: C[C@H](CO)N1C[C@H](C)[C@@H](CN(C)Cc2cccc(C(=O)Nc3ccccc3N)c2)OCc2ccccc2-c2c(n(C)c3ccccc23)C1=O was tested. Which viability index did it give?
A: The viability index was 0.887 ± 0.053.

Q: With N#C[C@H]1[C@@H](c2ccccc2)[C@H](CO)N1C(=O)c1ccccc1F as the compound, how does the viability index read?
A: Its viability index is 1.09 ± 0.032.

Q: Cc1noc(C)c1S(=O)(=O)Nc1ccc2c(c1)C(=O)N([C@@H](C)CO)C[C@@H](C)[C@H](CN(C)Cc1ccc(C(=O)O)cc1)OCCCC[C@@H](C)O2 was tested. Which viability index did it give?
A: Its viability index is 1.14 ± 0.17.

Q: CCS(=O)(=O)N1CC2(C1)[C@H](c1ccccc1)[C@H](CO)N2Cc1ccccn1 was tested. Which viability index did it give?
A: The viability index was 1.08 ± 0.082.

Q: Which viability index does the source give for CCCC#Cc1ccc([C@@H]2[C@H](C#N)N(C(=O)CN3CCOCC3)[C@H]2CO)cc1 here?
A: Its viability index is 1.1 ± 0.042.

Q: Which viability index does the source give for CO[C@H]1CN(C)C(=O)c2cc(NC(=O)NC(C)C)ccc2OC[C@@H](C)N(Cc2ccccc2)C[C@@H]1C here?
A: Its viability index is 0.951 ± 0.04.

Q: With CN1C(=O)c2cc(NS(=O)(=O)c3cccc(F)c3)ccc2OC[C@H]2O[C@@H](CC(=O)N3CCc4ccccc4C3)CC[C@H]21 as the compound, how does the viability index read?
A: The viability index was 1.07 ± 0.069.

Q: For COc1ccc(C#Cc2ccc3c(c2)[C@H]2[C@H](CCN2C(=O)Nc2ccc(C(F)(F)F)cc2)[C@@H](CO)N3C)cc1, which viability index is on record?
A: The viability index was 1.09 ± 0.013.

Q: For CC(=O)N1CCCCN2[C@@H](CO)[C@H](c3ccc(-c4ccccc4)cc3)[C@@H]2C1, which viability index is on record?
A: Its viability index is 1.07 ± 0.068.

Q: How did the viability index turn out when O=C(C[C@@H]1C=C[C@H](NC(=O)Nc2ccc3c(c2)OCO3)[C@H](CO)O1)NCCCN1CCOCC1 was run?
A: The viability index was 0.947 ± 0.071.

Q: O=C1CCCn2cc(nn2)COCCN1 was tested. Which viability index did it give?
A: The viability index was 0.987 ± 0.11.

Q: With C[C@@H]1CN([C@H](C)CO)C(=O)c2cc(NC(=O)Cn3cnnn3)ccc2O[C@@H]1CN(C)C(=O)Nc1ccc2c(c1)OCO2 as the compound, how does the viability index read?
A: Its viability index is 0.99 ± 0.022.

Q: For O=C(c1cnccn1)N1CC(=O)N2[C@@H](CO)[C@H](c3ccc(/C=C/c4ccccc4)cc3)[C@@H]2C1, which viability index is on record?
A: The viability index was 1.05 ± 0.098.

Q: How did the viability index turn out when O=C(C[C@H]1CC[C@@H](NC(=O)CC2CC2)[C@@H](CO)O1)NCC(F)(F)F was run?
A: Its viability index is 0.998 ± 0.059.

Q: For COc1ccccc1-c1cccc(-c2nc(C(=O)N3CCN(C)CC3)cc3c2[C@@H](CCO)N([S@](=O)C(C)(C)C)C3)c1, which viability index is on record?
A: The viability index was 0.997 ± 0.12.
